Source: the supplement of paper PMC8728848
This is one part of the list.

Legend:
Assay in all cases: glycan array binding signal (z-score within array); higher = stronger binding
Details in all cases: glycan notation: IUPAC condensed, linker removed
[1] = biological target: Fuc(a1-3)[Gal(b1-4)]GlcNAc(b1-6)[Gal(b1-3)GlcNAc(b1-3)]Gal(b1-4)Glc
In short: (§1)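 The binding signal is a Z-score computed within each array and averaged over linkers. Arrays of the same protein sequence at different concentrations or buffers were also averaged together. Data originate from 3228 arrays in the Consortium for Functional Glycomics database, kept only where the protein sequence was available.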

[2] = biological target: Fuc(a1-3)[Gal(b1-4)]GlcNAc6S
In short: as §1

[3] = biological target: Fuc(a1-3)[Gal3S(b1-4)]Glc6S
In short: as §1

[4] = biological target: Fuc(a1-3)[Gal3S(b1-4)]GlcNAc
In short: as §1

[5] = biological target: Fuc(a1-3)[Gal3S(b1-4)]GlcNAc6S
In short: as §1

[6] = biological target: Fuc(a1-3)[GalNAc(b1-4)]GlcNAc
In short: as §1

[7] = biological target: Fuc(a1-4)GlcNAc
In short: as §1

[8] = biological target: Fuc(b1-3)GlcNAc
In short: as §1

[9] = biological target: Gal(a1-2)Gal
In short: as §1

[10] = biological target: Gal(a1-3)Gal
In short: as §1

[11] = biological target: Gal(a1-3)Gal(b1-3)GlcNAc
In short: as §1

[12] = biological target: Gal(a1-3)Gal(b1-3)GlcNAc(b1-2)Man(a1-3)[Gal(a1-3)Gal(b1-3)GlcNAc(b1-2)Man(a1-6)]Man(b1-4)GlcNAc(b1-4)GlcNAc
In short: as §1

[13] = biological target: Gal(a1-3)Gal(b1-3)GlcNAc(b1-3)GalNAc
In short: as §1

[14] = biological target: Gal(a1-3)Gal(b1-3)[Fuc(a1-4)]GlcNAc(b1-2)Man(a1-3)[Gal(a1-3)Gal(b1-3)[Fuc(a1-4)]GlcNAc(b1-2)Man(a1-6)]Man(b1-4)GlcNAc(b1-4)GlcNAc
In short: as §1

[15] = biological target: Gal(a1-3)Gal(b1-4)Glc
In short: as §1

[16] = biological target: Gal(a1-3)Gal(b1-4)GlcNAc
In short: as §1

[17] = biological target: Gal(a1-3)Gal(b1-4)GlcNAc(b1-3)GalNAc
In short: as §1

[18] = biological target: Gal(a1-3)Gal(b1-4)[Fuc(a1-3)]GlcNAc
In short: as §1

[19] = biological target: Gal(a1-3)Gal(b1-4)[Fuc(a1-3)]GlcNAc(b1-2)Man(a1-3)[Gal(a1-3)Gal(b1-4)[Fuc(a1-3)]GlcNAc(b1-2)Man(a1-6)]Man(b1-4)GlcNAc(b1-4)GlcNAc
In short: as §1

[20] = biological target: Gal(a1-3)GalNAc
In short: as §1

[21] = biological target: Gal(a1-3)[Gal(a1-4)]Gal(b1-4)GlcNAc
In short: as §1

[22] = biological target: Gal(a1-4)Gal(b1-3)GlcNAc(b1-2)Man(a1-3)[Gal(a1-4)Gal(b1-3)GlcNAc(b1-2)Man(a1-6)]Man(b1-4)GlcNAc(b1-4)GlcNAc
In short: as §1

[23] = biological target: Gal(a1-4)Gal(b1-4)Glc
In short: as §1

[24] = biological target: Gal(a1-4)Gal(b1-4)GlcNAc
In short: as §1

[25] = biological target: Gal(a1-4)Gal(b1-4)GlcNAc(b1-2)Man(a1-3)[Gal(a1-4)Gal(b1-4)GlcNAc(b1-2)Man(a1-6)]Man(b1-4)GlcNAc(b1-4)GlcNAc
In short: as §1

[26] = biological target: Gal(a1-4)Gal(b1-4)GlcNAc(b1-3)Gal(b1-4)Glc
In short: as §1

[27] = biological target: Gal(a1-4)GlcNAc
In short: as §1

[28] = biological target: Gal(a1-6)Glc
In short: as §1

[29] = biological target: Gal(b1-2)Gal
In short: as §1

[30] = biological target: Gal(b1-3)Gal
In short: as §1

[31] = biological target: Gal(b1-3)Gal(b1-4)GlcNAc
In short: as §1

[32] = biological target: Gal(b1-3)Gal(b1-4)GlcNAc(b1-2)Man(a1-3)[Gal(b1-3)Gal(b1-4)GlcNAc(b1-2)Man(a1-6)]Man(b1-4)GlcNAc(b1-4)GlcNAc
In short: as §1

[33] = biological target: Gal(b1-3)GalNAc
In short: as §1

[34] = biological target: Gal(b1-3)GalNAc(a1-3)[Fuc(a1-2)]Gal(b1-4)Glc
In short: as §1

[35] = biological target: Gal(b1-3)GalNAc(a1-3)[Fuc(a1-2)]Gal(b1-4)GlcNAc
In short: as §1

[36] = biological target: Gal(b1-3)GalNAc(b1-3)Gal(a1-4)Gal(b1-4)Glc
In short: as §1

[37] = biological target: Gal(b1-3)GalNAc(b1-4)Gal(b1-4)Glc
In short: as §1

B1: PILRa (Homo sapiens), Q9UKJ1 (protein)
chain: MGRPLLLPLLPLLLPPAFLQPSGSTGSGPSYLYGVTQPKHLSASMGGSVEIPFSFYYPWELATAPDVRISWRRGHFHRQSFYSTRPPSIHKDYVNRLFLNWTEGQKSGFLRISNLQKQDQSVYFCRVELDTRSSGRQQWQSIEGTKLSITQAVTTTTQRPSSMTTTWRLSSTTTTTGLRVTQGKRRSDSWHISLETAVGVAVAVTVLGIMILGLICLLRWRRRKGQQRTKATTPAREPFQNTEEPYENIRNEGQNTDPKLNPKDDGIVYASLALSSSTSPRAPPSHRPLKSPQNETLYSVLKA
- glycan array binding signal (z-score) [1]: -0.224
- glycan array binding signal (z-score) [2]: 0.024
- glycan array binding signal (z-score) [3]: 0.048
- glycan array binding signal (z-score) [4]: -0.314
- glycan array binding signal (z-score) [5]: -0.051
- glycan array binding signal (z-score) [6]: -0.102
- glycan array binding signal (z-score) [7]: -0.404
- glycan array binding signal (z-score) [8]: -0.246
- glycan array binding signal (z-score) [9]: -0.298
- glycan array binding signal (z-score) [10]: -0.315
- glycan array binding signal (z-score) [11]: -0.153
- glycan array binding signal (z-score) [12]: 4.98
- glycan array binding signal (z-score) [13]: -0.192
- glycan array binding signal (z-score) [14]: -0.322
- glycan array binding signal (z-score) [15]: 0.046
- glycan array binding signal (z-score) [16]: -0.399
- glycan array binding signal (z-score) [17]: -0.192
- glycan array binding signal (z-score) [18]: -0.311
- glycan array binding signal (z-score) [19]: 2.21
- glycan array binding signal (z-score) [20]: -0.195
- glycan array binding signal (z-score) [21]: -0.235
- glycan array binding signal (z-score) [22]: -0.296
- glycan array binding signal (z-score) [23]: 0.11
- glycan array binding signal (z-score) [24]: -0.089
- glycan array binding signal (z-score) [25]: -0.033
- glycan array binding signal (z-score) [26]: -0.27
- glycan array binding signal (z-score) [27]: -0.204
- glycan array binding signal (z-score) [28]: 0.13
- glycan array binding signal (z-score) [29]: 0.001
- glycan array binding signal (z-score) [30]: -0.287
- glycan array binding signal (z-score) [31]: -0.288
- glycan array binding signal (z-score) [32]: -0.101
- glycan array binding signal (z-score) [33]: -0.275
- glycan array binding signal (z-score) [34]: -0.169
- glycan array binding signal (z-score) [35]: -0.179
- glycan array binding signal (z-score) [36]: -0.311
- glycan array binding signal (z-score) [37]: -0.239
